Measurements taken from PubChem BioAssay AID2202238 (Ras Initiative Chemistry Research Team, Frederick National …, 2025).
The list shows a part of the results. Further columns of the screen follow, without active or inactive calls.

Molecular target: GTPase KRas (Homo sapiens) (UniProt P01116)
Assay: Cysteine mutants labelled by reactive fragments (mass read-out) (AID 2202238)
Set-up: protein at 5 µM with 500 µM competing thiol for 1.5 h
Settings: KRAS G12D cysteine mutants, disulfide tethering, MALDI-TOF labeling, stronger effect = higher value, fragment at 500 µM
[1] = measured here: G75C mutant labeling
[2] = measured here: H94C mutant labeling
[3] = measured here: I36C mutant labeling
[4] = measured here: L120C mutant labeling
[5] = measured here: M67C mutant labeling
[6] = measured here: M72C mutant labeling
[7] = measured here: N86C mutant labeling
[8] = measured here: P121C mutant labeling
[9] = measured here: S122C mutant labeling
[10] = measured here: S136C mutant labeling
[11] = measured here: G60C mutant labeling
[12] = measured here: N26C mutant labeling

UniProt P01116, sequence (P01116 whole entry, looked up, the tested form may be a part): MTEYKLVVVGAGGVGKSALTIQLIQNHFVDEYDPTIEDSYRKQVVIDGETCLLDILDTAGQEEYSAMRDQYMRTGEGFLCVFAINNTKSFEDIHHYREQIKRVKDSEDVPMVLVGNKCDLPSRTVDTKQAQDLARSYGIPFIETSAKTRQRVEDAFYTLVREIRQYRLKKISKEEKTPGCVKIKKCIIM

Compound	percent labeling [1]	percent labeling [2]	percent labeling [3]	percent labeling [4]	percent labeling [5]	percent labeling [6]	percent labeling [7]	percent labeling [8]	percent labeling [9]	percent labeling [10]	percent labeling [11]	percent labeling [12]
Cn1cc(NC(=O)CCS)c(Oc2ccccc2)n1	14%	36.8%	35.9%	36.3%	38.7%	39.1%	18.4%	34.4%	33.7%	62.9%	–	–
CC1CCC(C)N1CC(=O)NCCS (stereo not drawn)	32.4%	46.4%	40.5%	31.4%	41.6%	38.8%	31.6%	34.8%	33%	49.4%	46.9%	42.4%
O=C(NCCS)c1cnc(C2CCOCC2)nc1	14%	27%	26.9%	33.1%	32.3%	27.3%	23.3%	31.4%	30.1%	46.4%	27.2%	41.1%
O=C(CCS)N(Cc1ccc(-c2ccccc2C(F)(F)F)o1)C1CC1	24.8%	36.5%	21%	14.3%	26.7%	60.5%	20.1%	25.5%	10.1%	50.4%	–	–
O=C(NCCS)c1nc(-c2cccs2)n(-c2cccc(F)c2)n1	8.6%	7.8%	4.7%	14.5%	6.2%	23.9%	6.4%	5.7%	3.9%	18.3%	12.3%	23.1%
NC(=O)C1CCC2(CC1)CC(NC(=O)CCS)C2 (stereo not drawn)	11.1%	37%	37.9%	30.1%	35.6%	21.8%	26%	35.7%	41.8%	49.7%	–	–
O=C(CCS)Nc1cc(Br)ccc1C(F)F	11%	70.9%	23.3%	20.2%	21.1%	44.8%	14.1%	21.6%	14.2%	32.5%	–	–
O=C(NCCS)C1CCOCC12CCCCC2 (stereo not drawn)	16%	34.7%	23.6%	30.5%	34.9%	20.9%	30%	33.1%	31.3%	51%	42.6%	34.8%
O=C(NCCS)c1cccc(-n2ccnc2)n1	30%	38.3%	25.2%	32.9%	27.8%	44%	26.2%	20.7%	17.3%	41.1%	33.5%	53.3%
CC(=O)Nc1ccc(C)c(NC(=O)CCS)c1	14.2%	28.8%	39.8%	31.5%	29%	29%	30.3%	28.4%	35.2%	47.2%	–	–
O=C(CNc1nc(C(F)(F)F)nc2ccccc12)NCCS	20%	23.6%	18.4%	23.8%	29.1%	33.8%	23.6%	15.8%	13.6%	22.7%	33.4%	30.4%
O=C(NCCS)c1ccoc1C1(O)CCOCC1	22.2%	43.3%	25.2%	40.5%	31.4%	37.2%	28.7%	37%	33.1%	49.7%	40%	42.5%
O=C(CCC1NC(=O)N(c2ccc(Cl)cc2)C1=O)NCCS (stereo not drawn)	16.1%	31.1%	29.1%	36.3%	23.8%	29.9%	21.2%	27.5%	25.6%	32.3%	38.7%	54.3%
Cn1c2ccccc2c2cc(C(=O)NCCS)sc21	18.4%	14.6%	9.8%	20.5%	8.4%	55.7%	16.4%	15.6%	11.3%	19.7%	32.1%	27.3%
CN(C)c1nccc(N2CCN(C(=O)CCS)CC2)n1	13.9%	33.5%	34.7%	30.7%	51.1%	31.7%	19.3%	33.5%	33.4%	58.1%	–	–
O=C(CCS)N(c1cc(F)cc(F)c1)C1CC1	25.9%	36.9%	36.5%	23.2%	29.7%	40.3%	41.1%	30.7%	39.1%	51.8%	–	–
CN(C)c1ncnc2c1cc(C(=O)NCCS)n2C	21.1%	22%	15.9%	17.1%	23.1%	32.2%	18.7%	15.7%	15%	34.3%	27%	52.8%
NC(=O)c1cc2n(n1)CC1(CCN(C(=O)CCS)CC1)OC2	20.3%	32.7%	43.1%	31.4%	41.4%	23.3%	24.5%	29.2%	27.6%	49.5%	–	–
O=C(CCS)Nc1cc(F)c(OC(F)F)cc1F	19%	23.2%	26.9%	27.2%	27.8%	56.7%	18.1%	23.7%	22.4%	37.9%	–	–
O=C(NCCS)C1CCC(NC(=O)C2CC2)CC1 (stereo not drawn)	11.9%	38.4%	28.5%	31.4%	30.6%	21%	28.5%	34%	32%	50%	28.2%	35.9%
Cc1ccc(OC2CCN(C(=O)CCS)CC2)cc1	14.9%	26.7%	21.1%	22.3%	32.4%	31.2%	15.2%	21.7%	20.1%	38.1%	–	–
O=C(Cn1cnc(-c2ccccc2)cc1=O)NCCS	6.2%	17.8%	19.7%	33.6%	21.1%	23.9%	18.6%	19.8%	15.6%	20.9%	21.2%	35%
Cc1ccc(C(=O)NCCS)cc1NC(=O)c1ccccc1	9.8%	14.6%	12%	24.7%	17.9%	22.8%	10.4%	17.5%	9.9%	15.4%	29.8%	26.7%

Compound	percent labeling [1]	percent labeling [2]	percent labeling [3]	percent labeling [4]	percent labeling [5]	percent labeling [6]	percent labeling [7]	percent labeling [8]	percent labeling [9]	percent labeling [10]	percent labeling [11]	percent labeling [12]
O=C(CN1CCc2ccccc2C1=O)NCCS	13.7%	32.2%	26%	56.8%	32.5%	24.6%	24.7%	36.7%	34.7%	50.9%	37.6%	37%
O=C(NCCS)c1ccn2cc(C(F)(F)F)nc2c1	11.7%	17.5%	17.7%	25.4%	15.6%	24.6%	19%	16.9%	14.9%	26.1%	18.8%	29.4%
COc1ccc(-c2ncc(C(=O)NCCS)s2)cc1OC	7.7%	13%	13.2%	10.3%	0%	26.8%	5.9%	10%	3.2%	9.1%	28.9%	18.4%
CCCOc1nc2ccccc2cc1C(=O)NCCS	11.7%	17.8%	7.6%	14%	10.3%	34.1%	9.2%	14.7%	10%	17.4%	25.8%	28%
Cc1cccc(NC(=O)N2CCCC(C(=O)NCCS)C2)c1 (stereo not drawn)	10.3%	19.9%	14.8%	19.1%	15.8%	12.1%	12%	15.9%	10%	20.1%	19.5%	23.2%
O=C(NCCS)c1ccc(Oc2cccc(Cl)c2Cl)cc1	21.4%	13.1%	23.2%	16.8%	54.7%	63.4%	9.5%	13.1%	0%	21.1%	45.6%	25.5%
O=C(NCCS)c1cc(OCC(F)(F)F)c2ccccc2n1	9.4%	12.4%	7%	8.4%	0%	15.7%	0%	8.3%	3%	0%	24.2%	13.9%
Cc1cc(C)c2cc(C(=O)NCCS)sc2n1	16.1%	11.1%	8.3%	11.3%	12.2%	33%	14.7%	8.1%	8.9%	21.2%	20.8%	30.8%
O=C(CCc1nc2cc(Br)ccc2s1)NCCS	5.4%	17.6%	5.2%	9%	7.1%	13.6%	5.2%	6.2%	7.2%	9%	22.1%	17.7%
CN(C)CCOc1ccc(NC(=O)CCS)c(F)c1	15.5%	39.4%	53%	35.7%	49.6%	40.4%	62.2%	33.2%	35.7%	52.7%	–	–
CC(C)(C)OC(=O)NCc1nc(C2CCN(C(=O)CCS)CC2)n[nH]1	12.9%	20.1%	0%	25.4%	27.6%	17%	26.3%	25.3%	29.1%	43.5%	–	–
N#Cc1c(N)sc2c1CCN(C(=O)CCS)C2	6.5%	12.3%	18.5%	13.2%	17.1%	11.6%	8.3%	16.9%	16.9%	28.2%	–	–
Cc1ncc(NC(=O)CCS)cc1C(N)=O	23.2%	23.4%	35.5%	25.8%	31%	25.1%	26.7%	31.1%	33.6%	44.8%	–	–
Cc1nn(Cc2ccc(Cl)cc2)c2sc(C(=O)NCCS)cc12	14%	16%	25.8%	13%	15.6%	62.1%	3.2%	7%	0%	46.1%	30.2%	26%
O=C(Cc1ccc2c(c1)OC(F)(F)O2)NCCS	15.4%	28.5%	16.2%	26.6%	19.5%	26%	16.8%	20%	19.6%	26.3%	42.9%	32.2%
O=C(CCS)NC1c2ccccc2CC12CCOCC2 (stereo not drawn)	12.3%	40.4%	43%	29.3%	43.4%	27.2%	31.8%	36.1%	36%	67.4%	–	–
O=C(NCCS)c1coc(C2CCCCC2)n1	16.6%	16.7%	18.8%	24.8%	13.7%	40.9%	10.3%	13.9%	13%	40%	22.2%	25.5%
CC(CC(=O)NCCS)NC(=O)C1CCCC1 (stereo not drawn)	11.6%	29.6%	23.4%	34.8%	26.9%	16.8%	25.6%	34.8%	33.8%	42.1%	27.7%	29.4%
Cc1cc(C)c(C(=O)NC2CCN(C(=O)CCS)CC2)o1	12.7%	31.2%	39.2%	30.9%	35.4%	23.8%	25.4%	37.6%	38.2%	50.6%	–	–
COc1ccc(C(=O)NC(C(=O)NCCS)c2ccccc2)cc1 (stereo not drawn)	10.3%	16.4%	9.9%	27.2%	13%	40.4%	9.2%	13.9%	9.5%	39.5%	36%	23.1%
CCCCN(C)c1ncc(Cl)c(C(=O)NCCS)n1	13.2%	16.8%	10%	17.5%	13.6%	41.5%	8.8%	15.9%	9.5%	17.1%	29.9%	25.2%
CCOC(=O)c1n[nH]c2c1CN(C(=O)CCS)CC2	13%	35.8%	34.8%	32.1%	37.5%	29.1%	20.9%	30.6%	35.1%	62.4%	–	–
O=C(Cn1nc(C(F)F)cc1C(F)F)NCCS	17.7%	37.3%	28.7%	49.7%	32.9%	24.4%	36.9%	35.7%	33.4%	36.5%	58.9%	34.9%
